From ChEMBL document CHEMBL1201862, “PubChem BioAssay data set” (2004) come the findings set out here.

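The compound was tested at five concentrations on cells cultured in 96-well plates, with a 48-hour exposure period. Abbreviation: GI50, concentration required for 50% inhibition of growth.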 Calls of active or inactive are those of the source. Rule as the data show it: active = GI50 up to about 1.1 µM and inactive = higher. Where only a bound is given, the exact number is not on record here.

The subject of the test is NCI-H322M. Nature of the test: NCI anticancer screen, dose series, 48 h.
On to `Nc1ccccc1C(=O)NNC(=O)c1ccccc1N`, for which the GI50 was inactive: > 100 µM.

For `Oc1c2c(nc3cc4c(cc13)OCO4)-c1ccccc1CCC2`, the GI50 is inactive: > 50 µM.

`O=C1C(Br)=C(c2ccccc2)C(c2ccccc2)=C1c1ccccc1`: the GI50 was inactive: 16 µM.

Turning to `Cc1cc(NC(=O)NC(=O)c2ccccc2NC(=O)C(C)N)ccc1Oc1ncc(Br)cn1` (stereo unspecified), the GI50 was active: 0.262 µM.

For the compound `O=C(c1ccccc1)N1CCC(Nc2cccnc2)O1` (stereo unspecified), the GI50 is inactive: > 100 µM.

Take `N#C[C@H](C(=O)c1ccccc1F)c1nc2ccccc2[nH]1`: the GI50 was inactive: > 100 µM.

For `Cc1nc2c(N3CCCC3)nc(N3CCNCC3)nc2nc1NCc1ccccc1`, the GI50 is inactive: 5.27 µM.

As for `O=C1c2ccccc2C(=O)c2c1nc1ccccc1c2-c1cncc(-c2c3c(nc4ccccc24)C(=O)c2ccccc2C3=O)c1`, the GI50 was inactive: 8.61 µM.

Turning to `CC1(C)N(OC2CCCCO2)C(c2ccccc2)C(c2ccccc2)=[N+]1[O-]` (stereo unspecified), the GI50 is inactive: > 100 µM.

Consider `CC1=CC[C@@H]2[C@@H](CC[C@@]2(C)O)C(C)(C)[C@H]1CC[C@@H]1[C@@]2(C)CC[C@@H](O)C(C)(C)O[C@@H]2CC[C@]1(C)O`, for which the GI50 was inactive: 20.6 µM.

Consider `O=C(Nc1ccccc1F)c1cc2ccc(O)cc2o/c1=N\c1cccc(C(F)(F)F)c1`, for which the GI50 is inactive: 3.12 µM.

With `CCN(C(C)=N)c1ccccc1`, the GI50 is inactive: > 100 µM.

For the compound `CCCCN(CCCC)CC(C(C)=O)C(c1ccccc1)c1c(O)c2ccccc2oc1=O` (stereo unspecified), the GI50 was inactive: > 100 µM.

`COC(=O)C1=C(C)NC2=C(C(=O)c3ccccc32)C1c1c[nH]nc1-c1ccccc1` (stereo unspecified): the GI50 is inactive: 72.6 µM.

For `Nc1ncnc2c1ccn2C1OC2COP(=O)(O)OC2C1O` (stereo unspecified), the GI50 is active: 0.533 µM.

Turning to `O=C1NC(c2ccccc2)C1N(Cc1ccccc1)Cc1ccccc1` (stereo unspecified), the GI50 is inactive: > 100 µM.

As for `CCOC(=O)c1cccc(/N=N/c2nc[nH]c2/C=C/C(=O)OC)c1`, the GI50 was inactive: 45.7 µM.

For the compound `COc1ccc(S(=O)(=O)N2C(=O)CCC2C(=O)NN)cc1` (stereo unspecified), the GI50 was inactive: > 100 µM.

`O=C(NCCNCCNC(=O)c1cc(-c2ccccc2)nc2ccccc12)c1cc(-c2ccccc2)nc2ccccc12`: the GI50 was inactive: 3.08 µM.

For `CCN1CN(c2ccccc2)C2(CCN(CC3COc4ccccc4O3)CC2)C1=O` (stereo unspecified), the GI50 is inactive: 44 µM.

With `CN1C[C@@H]2CC(=O)CC[C@@H]2C[C@H]1C#N`, the GI50 was inactive: > 100 µM.

Consider `O=C1NC(O)n2c(=O)[nH]c(=O)n21` (stereo unspecified), for which the GI50 was inactive: > 100 µM.

Take `COc1cc(OC)c2c(c1OC)OCC(Cc1ccc(O)cc1)C2=O` (stereo unspecified): the GI50 was inactive: > 25 µM.

For `O=c1c2cccnc2[s+]([O-])n1Cc1ccccc1` (stereo unspecified), the GI50 is inactive: > 100 µM.

`O=C(CC(=O)C1=CNc2ccccc2S1)C(=O)Nc1ccc(Cl)cc1`: the GI50 is inactive: > 50 µM.

Consider `Clc1ncnc(Cl)c1Cl`, for which the GI50 is inactive: > 100 µM.

In the case of `NC(=O)Cc1ncn(-c2ccccc2)n1`, the GI50 is inactive: > 100 µM.

With `c1ccc(-c2c(-c3cccs3)[nH]c(-c3cccs3)c2-c2ccccn2)nc1`, the GI50 is inactive: 34.6 µM.

On to `Cc1cc(=O)oc2c(CNC(Cc3ccccc3)C(=O)O)c(O)ccc12` (stereo unspecified), for which the GI50 was inactive: > 100 µM.

`CCCCc1c(OC)cc(O)c2c1C(=O)c1[nH]c(C(=O)O)c(O)c(=O)c1C2=O`: the GI50 was inactive: 30.4 µM.

On to `COc1ccc(C(=O)NNC(=O)c2nsc3ccccc23)cc1`, for which the GI50 was inactive: > 100 µM.

For `CC(=O)/C(=C\C1=CCCO1)C(=O)Nc1ccccc1C`, the GI50 was inactive: > 100 µM.

Regarding `CN(C)CCCn1c(Cc2ccccc2)nc2cc(C(F)(F)F)ccc21`, the GI50 was inactive: 25.7 µM.

On to `Cc1cccc(C2=C/C(=C(\SS/C(C(=O)c3ccc(OCC(=O)O)c(Cl)c3Cl)=C3\C=C(c4cccc(C)c4)SS3)C(=O)c3ccc(OCC(=O)O)c(Cl)c3Cl)SS2)c1`, for which the GI50 is inactive: 43.6 µM.

On to `Cc1cn([C@H]2[C@@H](CO)C[C@H]2O)c(=O)[nH]c1=O`, for which the GI50 was inactive: > 100 µM.

Regarding `C=C1C(=O)OC2C/C(C)=C/CC/C(C)=C/CCC3(COC(C)=O)OC3CC12` (stereo unspecified), the GI50 was inactive: 16.4 µM.

Regarding `CC(N1CCOCC1)C(O)(c1ccccc1)c1ccccn1` (stereo unspecified), the GI50 is inactive: > 100 µM.

Regarding `COC(=O)CCC12CCC(O1)c1ccccc12` (stereo unspecified), the GI50 is inactive: > 100 µM.

As for `O=c1[nH]nc2ccccc2c1Cc1ccccc1`, the GI50 is inactive: > 100 µM.

Turning to `Cc1ccc(C(=O)Cc2nc3ncccc3[nH]c2=O)cc1`, the GI50 is inactive: 44.6 µM.

With `O=C1CCC(=O)N1CNc1cccc(NCN2C(=O)CCC2=O)c1`, the GI50 is inactive: > 100 µM.

In the case of `O=C(Nc1cccc(Cl)c1)c1cc2cc(/N=N/c3ccc(Br)cc3)ccc2oc1=O`, the GI50 is inactive: > 100 µM.

Turning to `Nc1ncnc2c1ncn2C1C=CC(COS(N)(=O)=O)C1` (stereo unspecified), the GI50 is inactive: > 100 µM.

On to `COc1ccc(/C=C2\CC3C4CC=C5C[C@@H](N6CCCC6)CC[C@]5(C)C4CC[C@]3(C)[C@H]2O)cc1OC` (stereo partly specified), for which the GI50 was inactive: 9.33 µM.

With `O=C(/C=C/c1ccc(-c2ccccc2[N+](=O)[O-])o1)NCc1ccc(C(=O)NCCc2ccccc2)cc1`, the GI50 is inactive: > 100 µM.

With `Cc1ccc2c(n1)C(=O)c1ccccc1C2=O`, the GI50 is inactive: 20.3 µM.

`COc1cc(/C=C2/SC(c3ccccc3)N(c3cc(Cl)ccc3Cl)C2=O)cc(OC)c1OC` (stereo unspecified): the GI50 was inactive: > 100 µM.

With `COc1ccc(C(C)NNC(=O)c2ccncc2)cc1F` (stereo unspecified), the GI50 is inactive: > 100 µM.

For `COc1c(-c2ccc3c(c2)OCO3)oc2cc(O)cc(O)c2c1=O`, the GI50 is inactive: 36.6 µM.

For the compound `CCc1cccc(CC)c1NC(=S)NC(=O)c1ccc(Br)cc1`, the GI50 was inactive: 36.6 µM.

For `O=C1CC[C@@]2(O)[C@H]3Cc4ccc(-c5cccc(O)c5)c5c4[C@@]2(CCN3CC2CC2)[C@H]1O5`, the GI50 is inactive: 1.5 µM.

For the compound `COC1C(=O)CCC2(CO2)C1(O)C1(C)OC1CCC(C)C` (stereo unspecified), the GI50 is inactive: 44.7 µM.

On to `Nc1ncnc2ccc(Sc3ccc4ncnc(N)c4c3)cc12`, for which the GI50 is inactive: > 100 µM.

Take `N#C/C(=C/c1cccnc1)C(=O)c1ccccc1`: the GI50 was inactive: > 100 µM.

With `CC(=O)O[C@@]1(C)[C@@H](C)C(=O)O[C@@H]2CCN3CC=C(COC(=O)[C@]1(C)O)[C@H]23`, the GI50 is inactive: > 100 µM.

Turning to `CC(=O)c1cccc(N2COC(C)(C)c3nc4ccccc4n3C2)c1`, the GI50 is inactive: > 100 µM.

On to `CCOc1cc(NC(C)=O)ccc1C(=O)NNS(=O)(=O)c1ccc(NC(C)=O)cc1`, for which the GI50 was inactive: 59.7 µM.

With `N#C/C(N)=C(C#N)/N=C/Nc1ccccc1N`, the GI50 is inactive: > 100 µM.

In the case of `O/N=C(\c1ccccc1)N1CCCCC1`, the GI50 was inactive: > 100 µM.

In the case of `Cc1c(-c2nnc(-c3ccccc3)o2)c(=O)n(-c2ccccc2)n1C`, the GI50 is inactive: > 100 µM.

`Cc1ccc(NC(=O)CSC(N)=O)cc1C`: the GI50 was inactive: > 100 µM.

For `COc1ccc2c(O)c(S(=O)(=O)c3ccc(C)cc3)c(=O)oc2c1OC`, the GI50 is inactive: > 100 µM.

Consider `O[C@@H]1[C@H](OC2c3ccccc3-c3ccccc32)[C@H](OCc2ccccc2)[C@@H]2OC[C@H]1O2`, for which the GI50 was inactive: > 100 µM.

On to `COc1cc2c(cc1OCCCOc1cc3c(cc1OC)C(=O)N1CCC[C@H]1CN3)N=C[C@@H]1CCCN1C2=O`, for which the GI50 is active: 0.237 µM.

For `CCOC(=O)/C=C/C(=O)O/C=C/[N+](=O)[O-]`, the GI50 was inactive: > 100 µM.

With `COc1cccc(/C=N/n2c(Cc3ccccc3)n[nH]c2=O)c1`, the GI50 is inactive: > 100 µM.

For the compound `Nc1cc2c3c(cccc3c1)NC2=O`, the GI50 was inactive: > 100 µM.

As for `CS/C(=N/C#N)NCCc1c[nH]c2ccccc12`, the GI50 was inactive: > 100 µM.

Consider `CN(C)CCNc1nc2ccccc2c2c1CCCC2`, for which the GI50 was inactive: 26.7 µM.

Consider `CCSC1=N/C(=C\c2ccc(N(C)C)cc2)C(Cl)=N1`, for which the GI50 was inactive: > 100 µM.

For the compound `COC(=O)C1CCC(=O)N1C(c1ccccc1)c1ccc(OC)c(OC)c1` (stereo unspecified), the GI50 is inactive: > 100 µM.

As for `CCC(CS(=O)(=O)O)[N+](=O)[O-]` (stereo unspecified), the GI50 was inactive: > 100 µM.

On to `Cc1ccc(-n2c(C)n[nH]c2=O)cc1`, for which the GI50 is inactive: > 100 µM.

Consider `COc1ccc(-c2sc(Br)c3c2C(=O)C2OC(=O)NC32)cc1OC` (stereo unspecified), for which the GI50 was inactive: > 100 µM.

Take `O=C(c1ccncc1)n1nc(-c2ccccc2)c(/N=N/c2ccccc2[N+](=O)[O-])c1-c1ccccc1`: the GI50 is inactive: 25.7 µM.

As for `CC(N)Cc1ccc(Cl)c(Cl)c1` (stereo unspecified), the GI50 is inactive: 39.2 µM.

`O=S(=O)(O)c1cccc2cccc(/N=N/c3c(O)ccc4ccccc34)c12`: the GI50 was inactive: > 100 µM.

With `C[N+](C)(C)CCOP(=O)(O)OP(=O)([O-])OCC1CCC(n2ccc(N)nc2=O)O1` (stereo unspecified), the GI50 was inactive: > 100 µM.

As to `COc1ccc(CCC2c3cc(OC)c(OC)cc3CCN2C)cc1OC` (stereo unspecified), the GI50 is inactive: > 100 µM.

Take `C=C1C(=O)C23CC1CCC2C12CO[C@H](O)[C@H]1C(C)(C)[C@H](OC(C)=O)C[C@H]2OC3=O` (stereo partly specified): the GI50 was inactive: > 100 µM.

Take `O=C1c2ccccc2-c2oc(=O)c3ccccc3c21`: the GI50 was inactive: > 100 µM.

With `c1ccc(C(c2ccccc2)c2ccccn2)cc1`, the GI50 was inactive: 73.6 µM.

`O=CC(NC(=O)N(CCCl)N=O)C(O)C(O)C(O)CO` (stereo unspecified): the GI50 is inactive: 1240 µM.

Turning to `O=[N+]([O-])c1cc2oc(COc3ccccc3)nc2cc1Cl`, the GI50 was inactive: 35.6 µM.

For the compound `Cc1cnc2nc(-c3cccc4ccccc34)cc(O)c2c1`, the GI50 is active: 0.00399 µM.

With `O=c1c2cc(I)ccc2nc(-c2cccs2)n1/N=C/c1ccccc1`, the GI50 is inactive: > 100 µM.
